According to the supplement of paper PMC12217912:
The list shows a part of the results. Sequences were assembled here from the parent chain. Values near 0.05 are background.

B1: TEV protease; numbered along this chain (parent)
chain: MGESLFKGPRDYNPISSSICHLTNESDGHTTSLYGIGFGPFIITNKHLFRRNNGTLVVQSLHGVFKVKDTTTLQQHLVDGRDMIIIRMPKDFPPFPQKLKFREPQREERICLVTTNFQTKSMSSMVSDTSCTFPSGDGIFWKHWIQTKDGQCGSPLVSTRDGFIVGIHSASNFTNTNNYFTSVPKNFMELLTNQEAQQWVSGWRLNADSVLWGGHKVFMVKPEEPFQPVKEATQL

Variants of: B1
Assay: raw area under fraction-flipped curve 0-4 h after induction (AUC4h, not background-subtracted), DNA-recorder readout of cleavage of the substrate (dimensionless); higher = more cleavage of the substrate by the protease variant
Details: temperature: 34 °C; time window: 0-4 h after rhamnose induction
Protocol: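 In vivo DNA recorder in E. coli TOP10(DE3) ΔrhaA at 34 °C. Each TEVp single-site mutant (parent TEVp 0) is paired with a single-site variant of the 7-mer TEVs (canonical ENLYFQ|S). The substrate sits between flexible linkers in a Bxb1-sfGFP-TEVs-SsrA fusion, so cleavage stabilises Bxb1 and speeds flipping of a recombination array, read by NGS. The value is the raw area under the fraction-flipped curve over 0-4 h after rhamnose induction (AUC4h), with ≥20 reads per time point. It is not background-subtracted; inactive controls average about 0.047.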
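Further: Bxb1 expression induced with 0.2% (w/v) L-rhamnose at OD600 near 0.5, cultures sampled hourly, flipped fraction per protease–substrate barcode pair counted by paired-end Illumina sequencing.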

Variant | area with substrate EALYFQS | area with substrate ECLYFQS | area with substrate EDLYFQS | area with substrate EELYFQS | area with substrate EFLYFQS | area with substrate EGLYFQS | area with substrate EILYFQS | area with substrate EKLYFQS | area with substrate EMLYFQS | area with substrate EQLYFQS | area with substrate ERLYFQS | area with substrate ESLYFQS | area with substrate ETLYFQS | area with substrate EVLYFQS | area with substrate EWLYFQS | area with substrate EHLYFQS | area with substrate ELLYFQS | area with substrate EPLYFQS | area with substrate EYLYFQS
R106I | 0.126 | 0.119 | 0.137 | 0.135 | 0.099 | 0.116 | 0.0764 | 0.109 | 0.102 | 0.139 | 0.103 | 0.109 | 0.121 | 0.0683 | 0.108 |  |  |  | 
E108N | 0.0888 | 0.0764 | 0.0942 | 0.11 |  | 0.0602 | 0.0678 | 0.0684 | 0.0653 | 0.094 | 0.0665 | 0.0736 |  | 0.0724 | 0.0572 | 0.0786 | 0.0629 | 0.0915 | 0.0755
E108P | 0.0695 | 0.0538 | 0.0419 | 0.0986 |  | 0.0782 | 0.0442 |  |  | 0.0653 | 0.0556 | 0.0528 | 0.061 | 0.0836 | 0.0664 | 0.0554 |  | 0.0742 | 
E108Y | 0.0706 | 0.0484 | 0.0648 | 0.0617 | 0.0525 | 0.0609 | 0.0645 | 0.0389 | 0.0609 | 0.0757 | 0.0761 | 0.0694 | 0.0681 | 0.062 |  |  | 0.0612 | 0.0621 | 0.0655
R109C | 0.0695 | 0.0964 | 0.117 |  |  | 0.082 | 0.0867 | 0.0995 | 0.091 | 0.142 | 0.0831 | 0.104 | 0.15 | 0.098 |  |  |  | 0.151 | 0.101
R109P | 0.114 | 0.11 | 0.138 | 0.114 | 0.0925 | 0.129 | 0.0838 | 0.1 | 0.112 | 0.106 | 0.114 | 0.105 |  | 0.0811 | 0.1 | 0.118 |  |  | 0.114
I110H | 0.0646 | 0.0631 | 0.0727 | 0.0422 | 0.0362 | 0.0708 | 0.062 |  |  | 0.0605 |  | 0.0518 |  | 0.0644 | 0.0489 | 0.0666 | 0.0438 | 0.0535 | 0.0678
C111K | 0.173 | 0.111 | 0.145 | 0.14 |  | 0.104 | 0.159 | 0.11 |  | 0.122 | 0.0966 | 0.137 | 0.126 |  | 0.0897 |  |  |  | 
V113C | 0.102 | 0.0812 | 0.115 | 0.0783 |  |  | 0.0974 | 0.111 | 0.106 | 0.125 |  |  | 0.113 | 0.0738 | 0.129 |  | 0.113 |  | 0.112
V113D | 0.0569 | 0.0652 | 0.0531 | 0.0551 |  |  | 0.045 | 0.0547 |  | 0.057 | 0.0629 | 0.0535 |  | 0.0585 | 0.0469 | 0.0478 | 0.056 | 0.0575 | 0.047
V113H | 0.106 | 0.115 | 0.121 | 0.0814 | 0.0931 | 0.0936 | 0.0782 | 0.114 |  | 0.151 | 0.0953 | 0.129 |  | 0.0789 | 0.0729 | 0.126 | 0.0906 | 0.102 | 
V113L | 0.108 | 0.11 | 0.118 | 0.131 |  | 0.0922 | 0.0713 | 0.114 | 0.131 | 0.109 | 0.116 | 0.103 | 0.127 | 0.0902 | 0.103 | 0.0844 | 0.0937 | 0.147 | 0.13
